Some of the results follow. Where only a bound is given, the exact number is not on record here.

In the experiment the test system is T1, Caupolican (Caup) homeodomain DNA-binding domain.
T1 sequence: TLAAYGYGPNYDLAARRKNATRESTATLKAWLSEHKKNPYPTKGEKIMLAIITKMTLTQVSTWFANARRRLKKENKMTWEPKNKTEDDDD
Put plainly: PBM E-score (8-mer, recovered from the published 9-mer minima) (E-score (dimensionless, -0.5 to 0.5)); Drosophila protein; higher = stronger relative binding preference, active = 0.31 or more. The method, then:
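Protein binding microarray (PBM): in vitro transcribed/translated Caupolican (Caup) homeodomain DNA-binding domain (residues 214-303) applied at 100 nM to a universal 8-mer PBM array (Agilent AMADID 015681). The 8-mer enrichment score (E-score, range -0.5 to 0.5) was computed, and each 9-mer score is the minimum E-score of its two constituent 8-mers. The E-score is the same for a 9-mer and its reverse complement; 0.31 is the stated binding threshold.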
Consider CTGAAGAC, for which the “PBM E-score” value was inactive: -0.0545.

In the case of CTACCCTA, the “PBM E-score” value is inactive: -0.102. The figure for TCCTCTAA is inactive: -0.0475; for TAGGGTGA it is inactive: -0.0507. In the case of CCAGACAA, the “PBM E-score” value was inactive: 0.0491.

As for TAACCCGA, the “PBM E-score” value is inactive: 0.00428. The same measure for TACTACGA: at least 0.145. Turning to GGCTCGTA, the “PBM E-score” value was inactive: 0.0794. For the sequence AACCCTAC, the “PBM E-score” value was inactive: -0.00118. The figure for ATGGACCC is inactive: -0.0688; for ATTATACG it is inactive: 0.049; for ACGGCCTC it is inactive: -0.236. In the case of ACTTGCTG, the “PBM E-score” value is inactive: 0.0302. Consider TCCGCCAA, for which the “PBM E-score” value is inactive: -0.188. Regarding CTCATTAC, the “PBM E-score” value is inactive: 0.139. For GTTTACAA, the “PBM E-score” value was active: 0.343. The figure for GGCATGCA is inactive: 0.0214. The figure for AACAGGGA is at least 0.168. Turning to CGAATGCA, the “PBM E-score” value was at least 0.102.

As for AGGAGCAC, the “PBM E-score” value was inactive: -0.0862. As for CATGTGTA, the “PBM E-score” value is inactive: 0.308. Turning to AGGCCAAG, the “PBM E-score” value was inactive: -0.144. As to AATAAACG, the “PBM E-score” value is inactive: 0.142. For AGATATTC, the “PBM E-score” value was inactive: 0.0274. Regarding ACATCTTG, the “PBM E-score” value is inactive: 0.262. Consider CCCACCCC, for which the “PBM E-score” value is inactive: -0.155. In the case of AGCCTCTA, the “PBM E-score” value is inactive: -0.143. Take CAGAGTGC: the “PBM E-score” value is inactive: -0.102.

Consider AATGTAAG, for which the “PBM E-score” value was inactive: 0.214. Take ATACATAT: the “PBM E-score” value was active: 0.344. With ACGCAGGA, the “PBM E-score” value was at least -0.0018. The same measure for GATAATAC: inactive: 0.154; for GCTTTAAA: inactive: -0.0478; for CCGCGTCG: inactive: -0.0739. Regarding AAGAGGGG, the “PBM E-score” value was inactive: -0.187. Turning to CCGACGCA, the “PBM E-score” value is inactive: -0.128.

AACCGGAA: the “PBM E-score” value is inactive: -0.0406. As for TGGGGTAA, the “PBM E-score” value was inactive: -0.0531. Take AATGGGCT: the “PBM E-score” value was inactive: -0.0639.

As for GCGCGGCC, the “PBM E-score” value is inactive: -0.302. Consider CATGCGCA, for which the “PBM E-score” value is inactive: 0.00662. The same measure for ACGCCCTG: inactive: -0.0756; for CAACACAA: inactive: 0.241; for ATAACATG: active: 0.424. The same measure for AGCGCTGC: inactive: -0.119; for ACCCAATA: inactive: 0.0314. Turning to AGTCGAAC, the “PBM E-score” value was inactive: 0.0823. Regarding AGCGATCG, the “PBM E-score” value is inactive: -0.00992. The same measure for CAATCGCC: inactive: -0.029. In the case of AATTCAAT, the “PBM E-score” value was inactive: 0.119. The same measure for ATCAGCAC: inactive: 0.0108. The same measure for GAACATGC: active: 0.354; for ACGAAATC: inactive: 0.067. The figure for GATTTCAC is inactive: 0.101; for GCCGCCAA it is inactive: -0.218. Turning to GGGCGTCA, the “PBM E-score” value is inactive: -0.174.

As for CCCTCACC, the “PBM E-score” value was inactive: -0.153.

On to CGCAAATA, for which the “PBM E-score” value is inactive: 0.0646. With CGGCATGC, the “PBM E-score” value is inactive: -0.0407. With AGAATGCA, the “PBM E-score” value was inactive: 0.05. As for GCAGACAC, the “PBM E-score” value is inactive: 0.033. The figure for ATCAAATG is inactive: 0.0866.

The values are drawn from the supplement of paper PMC3724861.
